Values joined by “and” are separate entries in the source; they are usually repeats but may differ in a detail not shown here. Equal values may be shown once. Among all 410,000 compounds or so, about 5,000 (1.2%) were called active. This list was built around the results that the source calls inconclusive (neither active nor inactive); the mix of calls is not that of the screen. Calls follow the shape of the dose curve; as a rule, active = well fitted inhibition curve with a large enough effect; inconclusive = small, poorly fitted or top-dose-only effect; inactive = no such curve, though single readings can be large or run the other way. Potencies of inconclusive entries are doubtful fits and often do not repeat.
Assay: qHTS for Inhibitors of TGF-b; also: nearly all actives have a fitted effect of over 65% in size
Settings: HepG2 CAGA-GFP TGF-b/SMAD3 reporter, GFP fluorescence, 18 h, TGF-beta stimulated, 500 pg/mL final; series mostly up to 46.1 µM; activity, negative = inhibition: at the top concentration
Method in brief: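 HEPG2 CAGA-GFP, 1000 cells/well; 2 h settle, 37 C; cpd via pin tool; TGF-b 500 pg/mL final; 18 h, 37 C; GFP imaging ex488/em500-530; %Activity normalised to -TGF-b and +DMSO controls; CRC fit, curve class.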
% is scaled to controls: 0 for no effect and ±100 for the full control effect; potency is read from the fitted curve at half-maximal effect; tags tell the direction and shape of the fitted curve.

Q: Which “activity, negative = inhibition” value does the source give for `O=C(Nc1cccc2ncccc12)c1cc(Br)ccc1Cl` here?
A: inactive: 0.368%

Q: Which “activity, negative = inhibition” value does the source give for `COc1ccc(NC(=O)C2(C)CCCN(C(C)C)C2)cc1F` (stereo not given) here?
A: inactive: -0.0045%

Q: With `Cc1ccc(OCC(=O)OCc2cc(=O)n3nc(-c4cccs4)sc3n2)cc1C` as the compound, how does the Potency read?
A: inconclusive: 5.62 µM [inhibitor, single point]

Q: For `COc1cccc2sc(N(CCCN(C)C)C(=O)COc3ccc(Cl)cc3)nc12`, which Potency is on record?
A: inconclusive: 10 µM [inhibitor, partial curve, poor fit]

Q: For `Cc1ccc(-c2nc3n(n2)C(=O)CC(c2ccc(Cl)cc2)S3)cc1` (stereo not given), which Potency is on record?
A: inconclusive: 35.5 µM [inhibitor, single point]

Q: For `CCCC1=NN(C(=O)Cc2ccc(OC)cc2)C(O)(C(F)(F)F)C1` (stereo not given), which Potency is on record?
A: inconclusive: 5.62 µM [inhibitor, single point]

Q: Which Potency does the source give for `O=S(=O)(c1ccc2ccccc2c1)N1CCN(C2Cc3ccccc3C2)CC1` here?
A: active: 5.01 µM

Q: For `C=C(C)Cn1c(NCCOC)nc2c1c(=O)[nH]c(=O)n2C`, which Potency is on record?
A: inconclusive: 35.5 µM [inhibitor, partial curve, poor fit]

Q: Which Potency does the source give for `Cc1cc(=O)[nH]c(SCC(=O)Nc2ccc(Br)cc2)c1C#N` here?
A: inconclusive: 20 µM [inhibitor, single point]

Q: For `Cc1ccc(C)c(N2CCN(CCCNC(=O)c3cnn(-c4ccccc4Cl)c3C3CCN(C(=O)OC(C)(C)C)CC3)CC2)c1`, which Potency is on record?
A: inconclusive: 35.5 µM [inhibitor, single point]

Q: With `CC(Nc1ccc(Cl)cc1)c1cc(Cl)ccc1O` (stereo not given) as the compound, how does the Potency read?
A: inconclusive: 35.5 µM [inhibitor, single point]

Q: For `O=C(NCc1ccc(F)cc1)c1cc2n(n1)CCCN(Cc1ccc(F)cc1)C2=O`, which Potency is on record?
A: inconclusive: 35.5 µM [inhibitor, single point]

Q: For `Cc1ccc(S(=O)(=O)NCc2nnc(SCC(=O)Nc3cccc(C)c3C)n2C)cc1`, which Potency is on record?
A: inconclusive: 35.5 µM [inhibitor, single point]

Q: With `CNC(=O)C(=O)NCC1CCCN1S(=O)(=O)c1cccs1` (stereo not given) as the compound, how does the Potency read?
A: inconclusive: 35.5 µM [inhibitor, partial curve, poor fit]

Q: For `CC(C)(C)c1cc(C(=O)Nc2ccc(F)cc2)n(Cc2ccc(F)cc2)n1`, which Potency is on record?
A: inconclusive: 15.8 µM [inhibitor, partial curve, poor fit]

Q: Which “activity, negative = inhibition” value does the source give for `CN(C)c1ccc(-c2nc3ccccc3c(=O)[nH]2)cc1` here?
A: inactive: -6.02%

Q: Which “activity, negative = inhibition” value does the source give for `CCOc1ccc(-c2ccc(NS(=O)(=O)c3ccc(C)cc3)cc2)nn1` here?
A: inactive: -14.1%

Q: For `CCCCN(CC)CCCNC(=O)C1CCN(c2ncnc3c2sc2cccc(F)c23)CC1`, which Potency is on record?
A: inconclusive: 35.5 µM [inhibitor, single point]

Q: Which “activity, negative = inhibition” value does the source give for `COc1ccc(CCCc2nnc(SCC(=O)Nc3ccc(C)cc3)o2)cc1` here?
A: inactive: -1.51%

Q: For `CN(C)S(=O)(=O)c1ccc(C(=O)Nc2nnc(-c3ccc4c(c3)CCCC4)o2)cc1`, which Potency is on record?
A: inconclusive: 3.16 µM [inhibitor, single point]

Q: For `CN(CC(=O)Nc1ccc(F)cc1)C(=O)c1cn(-c2ccccc2)nc1-c1cccs1`, which “activity, negative = inhibition” value is on record?
A: inactive: -27.5%

Q: For `Cc1cn([C@H](C(=O)NCCCCCCCCCCC(=O)N2CCN(C(=O)OC(C)(C)C)CC2)[C@@H](C)O)nn1`, which “activity, negative = inhibition” value is on record?
A: inactive: -25.4%

Q: With `FC(F)(F)c1cccc(N/N=C/c2ccccc2)c1` as the compound, how does the Potency read?
A: active: 11.2 µM

Q: Which Potency does the source give for `CCOc1ccccc1CN1CCN(Cc2ccc(C)o2)C(CCO)C1` (stereo not given) here?
A: inconclusive: 10 µM [inhibitor, partial curve, poor fit]

Q: With `CCOc1cc(CNC(=O)c2sc3ncnc(N(C)C4CCCCC4)c3c2C)ccc1OC` as the compound, how does the Potency read?
A: inconclusive: 35.5 µM [inhibitor, single point]

Q: For `CN(C)c1ccc(C=C2SC(=S)NC2=O)cc1`, which “activity, negative = inhibition” value is on record?
A: inactive: 61.5%

Q: With `Nc1nc(N)nc(-c2cccc([N+](=O)[O-])c2)n1` as the compound, how does the “activity, negative = inhibition” value read?
A: inactive: 11.5%

Q: Which Potency does the source give for `CC(=O)c1ccc(NC(=O)Cn2cc(S(=O)(=O)Cc3cccc(Cl)c3)c3ccccc32)cc1` here?
A: inconclusive: 8.91 µM [inhibitor, partial curve, poor fit]

Q: Which Potency does the source give for `COc1ccc(OCc2cc(=O)c3ccc4c(c3o2)C=CC(C)(C)O4)cc1OC` here?
A: inconclusive: 14.1 µM [inhibitor, single point]

Q: Which Potency does the source give for `CCOC(=O)C1=C(C)NC(=O)NC1c1ccccc1OCc1c(F)cccc1Cl` (stereo not given) here?
A: inconclusive: 35.5 µM [inhibitor, single point]

Q: With `CCc1nc2ccccc2n1CCCCOc1ccc(C)cc1` as the compound, how does the Potency read?
A: inconclusive: 10 µM [inhibitor, partial curve, poor fit]

Q: With `Brc1ccccc1OCCNCc1ccccc1` as the compound, how does the Potency read?
A: inconclusive: 35.5 µM [inhibitor, single point]

Q: With `CC1=CC(C)C(COC(=O)CN2CCCCC2)C(C)C1` (stereo not given) as the compound, how does the Potency read?
A: inconclusive: 6.31 µM [inhibitor, single point]

Q: For `CCOC(=O)CSC1=C(C#N)C(c2ccc(C)o2)CC(=O)N1` (stereo not given), which Potency is on record?
A: inconclusive: 11.2 µM [inhibitor, partial curve, poor fit]

Q: Which Potency does the source give for `c1ccc(CNc2ncnc3c2oc2ccccc23)nc1` here?
A: inconclusive: 20 µM [inhibitor, single point]

Q: With `Cc1ccc2c(Sc3ccc(Cl)cc3)c(C(=O)N3CCC(C)CC3)[nH]c2c1` as the compound, how does the Potency read?
A: inconclusive: 11.2 µM [inhibitor, partial curve, poor fit]

Q: For `CC(=O)Nc1cc(-c2cccc(C(=O)NCCN(C)C)c2)cn2c(-c3cccc(C(F)(F)F)c3)cnc12`, which Potency is on record?
A: inconclusive: 35.5 µM [inhibitor, single point]

Q: With `CCC(Oc1ccc(C)cc1)C(=O)Nc1ccccc1C(=O)N1CCOCC1` (stereo not given) as the compound, how does the “activity, negative = inhibition” value read?
A: inactive: 0.275%

Q: For `O=S(=O)(Nc1c(S(=O)(=O)c2ccccc2)c2nc3ccccc3nc2n1C1CCCCC1)c1ccccc1`, which Potency is on record?
A: inconclusive: 3.16 µM [inhibitor, single point]

Q: With `Cc1ccc(OCc2ccc(C(=O)Nc3cc(C)on3)o2)c([N+](=O)[O-])c1` as the compound, how does the “activity, negative = inhibition” value read?
A: inactive: 4.39%

Q: Which “activity, negative = inhibition” value does the source give for `CCOc1ccc(C2C(C(=O)c3cccs3)=C(O)C(=O)N2CCN2CCOCC2)cc1` (stereo not given) here?
A: inactive: -26%

Q: For `COc1ccc(CNC(=O)c2ccc(N3CCCC3)c(NC(=O)NCc3ccc(F)cc3)c2)cc1`, which Potency is on record?
A: inconclusive: 17.8 µM [inhibitor, single point]

Q: With `O=C(CSc1nc(-c2ccccc2Cl)ns1)Nc1ccc2c(c1)OCO2` as the compound, how does the Potency read?
A: inconclusive: 0.112 µM [inhibitor, full curve, poor fit]

Q: Which Potency does the source give for `N#Cc1ccc(-c2c(-c3ccccc3)ncc3cc(F)ccc23)cc1` here?
A: inconclusive: 12.6 µM [inhibitor, single point]

Q: Which “activity, negative = inhibition” value does the source give for `Cc1cccc(C(=O)N[C@H](C(=O)Nc2nc(C)cs2)C(C)C)c1` here?
A: inactive: -7.12%

Q: Which Potency does the source give for `Cc1ccc(-n2c(C)cc3c2CC(C)(C)CC3=O)cc1C` here?
A: inconclusive: 3.55 µM [inhibitor, single point]

Q: Which Potency does the source give for `Cc1cccc(-c2nc(CSCC(=O)N3CCN(Cc4ccc5c(c4)OCO5)CC3)c(C)o2)c1` here?
A: inconclusive: 22.4 µM [inhibitor, partial curve, poor fit]

Q: Which “activity, negative = inhibition” value does the source give for `CC(=O)Nc1ccc(NC(=O)C2CC(=O)N(Cc3ccco3)C2)cc1` (stereo not given) here?
A: inactive: 18.5%

Q: For `COc1cc(-c2cc(OC)c3c(C)oc(C)c3c(=O)c2)ccc1OC(=O)c1ccccc1Cl`, which Potency is on record?
A: inconclusive: 10 µM [inhibitor, single point]

Q: Which Potency does the source give for `CCCCCCn1c(C(C)NC(=O)c2ccco2)nc2ccccc21` (stereo not given) here?
A: inconclusive: 35.5 µM [inhibitor, single point]

Q: Which Potency does the source give for `COc1ccc(C(=O)C/C(=C\C(=O)c2ccc(C)cc2)c2ccccc2)cc1` here?
A: inconclusive: 35.5 µM [inhibitor, single point]

Q: Which “activity, negative = inhibition” value does the source give for `Cc1ccc(N2CC(C(=O)NCCCn3ccnc3)CC2=O)cc1` (stereo not given) here?
A: inactive: 5.96%

Q: For `Cc1ccccc1N1CC(c2nc3ccccc3n2CCC2CCCCC2)CC1=O` (stereo not given), which Potency is on record?
A: inconclusive: 11.2 µM [inhibitor, partial curve, poor fit]

Q: With `Cc1ccc(C(C)C)c(OCC(=O)NCC2(N(C)C)CCCCC2)c1` as the compound, how does the “activity, negative = inhibition” value read?
A: inactive: -2.89%

Q: For `COc1ccc(C)cc1NC(=O)COC(=O)Cc1c[nH]c2ccccc12`, which “activity, negative = inhibition” value is on record?
A: inactive: -6.06%

Q: Which Potency does the source give for `COc1ccc(CCn2cc3c(c2-c2ccc(Br)cc2)c(=O)n(C)c(=O)n3C)cc1OC` here?
A: inconclusive: 22.4 µM [inhibitor, partial curve, poor fit]

Q: For `O=C(Nc1cccnc1)c1ccc(-c2cc(Cl)ccc2Cl)o1`, which “activity, negative = inhibition” value is on record?
A: inactive: -1.68%

Q: For `O=C(NCCc1ccccc1Cl)c1ccc(Cn2c(=O)c3cccn3c3cccnc32)cc1`, which Potency is on record?
A: inconclusive: 12.6 µM [inhibitor, partial curve, poor fit]

Q: Which Potency does the source give for `CCOc1ccc(CCNC(=O)CCc2cn(Cc3ccc(F)cc3)c3ccccc23)cc1` here?
A: inconclusive: 7.08 µM [inhibitor, partial curve, poor fit]

Q: For `CC(C)C[C@@H](CN1CCC[C@@H]1CN1C(=S)NC[C@@H]1Cc1ccc(O)cc1)N1C[C@H](Cc2ccc(O)cc2)N(CC2CCCCC2)C1=S`, which Potency is on record?
A: active: 7.08 µM

Q: Which Potency does the source give for `COc1cccc(NC(=O)C(Cc2ccccc2)NS(=O)(=O)c2ccc3c(c2)oc(=O)n3C)c1` (stereo not given) here?
A: inconclusive: 17.8 µM [inhibitor, partial curve, poor fit]

Q: Which Potency does the source give for `CC(C(=O)N1CCOCC1)(c1ccccc1)c1ccccc1` here?
A: inconclusive: 35.5 µM [inhibitor, single point]

Q: For `O=C(NC(c1ccccc1)C(Cl)(Cl)Cl)c1ccccc1` (stereo not given), which “activity, negative = inhibition” value is on record?
A: inactive: -3.87%

Q: For `CCOc1ccc(NC(=O)Cn2cc(C(=O)c3ccco3)c3ccccc32)cc1`, which Potency is on record?
A: inconclusive: 12.6 µM [inhibitor, single point] and inconclusive: 10 µM [inhibitor, partial curve, poor fit]

Q: For `CC(=O)c1ccc(OCc2cc(C(=O)N(C)CCOc3ccc(C)cc3)no2)cc1`, which Potency is on record?
A: inconclusive: 35.5 µM [inhibitor, single point]
